A lower IC50 marks a more sensitive line; fits outside the tested doses are given as limits. AUC is the area under the same curve over the 256-fold range up to the top dose, as a fraction; it is 1 without any effect and falls as sensitivity rises. For part of these data: The top dose, if marked as inferred, comes from the curve model; the source does not state it.
What was measured:
Assay in all cases: Viability of human cancer cell lines after 72 h of drug (GDSC screen)
ZG-10 = compound: CN(C)C/C=C/C(=O)Nc1ccc(C(=O)Nc2cccc(Nc3nccc(-c4cccnc4)n3)c2)cc1 [ZG-10]; conditions: top dose 10 µM; top dose inferred
Protocol: (§1)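 Human cancer cell lines in 384-well plates, medium with 10% serum, drug for 72 h over a 256-fold dose range (nine 2-fold or five 4-fold steps up to the top dose). Adherent lines were fixed and stained with the nucleic acid dye Syto60, suspension lines read with resazurin; signal relative to control wells, capped at 0 and 100%. One two-parameter sigmoid per drug and line, fitted in a mixed model over all curves with the slope shared within a line.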

Tubastatin A = compound: CN1CCc2c(c3ccccc3n2Cc2ccc(C(=O)NO)cc2)C1 [Tubastatin A]; conditions: top dose 20 µM
Protocol: as §1

Temozolomide = compound: Cn1nnc2c(C(N)=O)ncn2c1=O [Temozolomide]; conditions: top dose 30 µM
Protocol: as §1

XL-880 = compound: COc1cc2c(Oc3ccc(NC(=O)C4(C(=O)Nc5ccc(F)cc5)CC4)cc3F)ccnc2cc1OCCCN1CCOCC1 [XL-880]; conditions: top dose 5.12 µM; top dose inferred
Protocol: as §1

CI-1040 = compound: O=C(NOCC1CC1)c1ccc(F)c(F)c1Nc1ccc(I)cc1Cl [CI-1040]; conditions: top dose 10 µM; top dose inferred
Protocol: as §1

IPA-3 = compound: Oc1ccc2ccccc2c1SSc1c(O)ccc2ccccc12 [IPA-3]; conditions: top dose 32 µM; top dose inferred
Protocol: as §1

| Cell Line | AUC (ZG-10) | IC50 (ZG-10) [µM] | AUC (Tubastatin A) | IC50 (Tubastatin A) [µM] | AUC (Temozolomide) | IC50 (Temozolomide) [µM] | AUC (XL-880) | IC50 (XL-880) [µM] | AUC (CI-1040) | IC50 (CI-1040) [µM] | AUC (IPA-3) | IC50 (IPA-3) [µM] |
| --- | --- | --- | --- | --- | --- | --- | --- | --- | --- | --- | --- | --- |
| CS1 (bone, adherent) | 0.731 | 3.1 | 0.963 | > 20 | 0.944 | > 30 | 0.517 | 0.358 | 0.902 | > 10 | 0.984 | > 32 |
| NCI-H1755 (lung adenocarcinoma, adherent) | 0.76 | 4.05 | 0.96 | > 20 | 0.976 | > 30 | 0.394 | 0.156 | 0.875 | > 10 | 0.984 | > 32 |
| ASH-3 (thyroid, adherent) | 0.791 | 4.48 | 0.987 | > 20 | 0.976 | > 30 | 0.985 | > 5.12 | 0.693 | 2.17 | 0.671 | 5.98 |
| RERF-LC-Sq1 (lung squamous cell carcinoma, adherent) | 0.759 | 5.12 | 0.961 | > 20 | 0.939 | > 30 | 0.757 | 2.57 | 0.789 | 6.9 | 0.962 | > 32 |
| H2795 (mesothelioma, adherent) | 0.68 | 1.98 | 0.909 | > 20 | 0.986 | > 30 | 0.525 | 0.374 | 0.652 | 1.64 | 0.913 | > 32 |
| Calu-3 (lung adenocarcinoma, adherent) | 0.896 | > 10 | 0.959 | > 20 | 0.974 | > 30 | 0.849 | > 5.12 | 0.9 | > 10 | 0.98 | > 32 |
| M059J (glioma, adherent) | 0.748 | 3.44 | 0.957 | > 20 | 0.953 | > 30 | 0.599 | 0.614 | 0.945 | > 10 | 0.809 | 18.4 |
| T84 (large intestine, adherent) | 0.968 | > 10 | 0.975 | > 20 | 0.982 | > 30 | 0.753 | 1.74 | 0.979 | > 10 | 0.789 | 14.4 |
| NCI-H650 (lung adenocarcinoma, adherent) | 0.81 | 5.91 | 0.964 | > 20 | 0.985 | > 30 | 0.761 | 2 | 0.932 | > 10 | 0.796 | 16.7 |
| JURL-MK1 (chronic myeloid leukaemia, suspension) | 0.777 | 3.99 | 0.884 | > 20 | 0.976 | > 30 | 0.38 | 0.15 | 0.188 | 0.0735 | 0.921 | > 32 |
| MDA-MB-415 (breast, adherent) | 0.788 | 6.09 | 0.982 | > 20 | 0.979 | > 30 | 0.983 | > 5.12 | 0.931 | > 10 | 0.972 | > 32 |
| TT (thyroid, adherent) | 0.907 | > 10 | 0.982 | > 20 | 0.975 | > 30 | 0.782 | 3.07 | 0.908 | > 10 | 0.983 | > 32 |
| PCI-4B (head and neck, adherent) | 0.7 | 2.2 | 0.889 | > 20 | 0.981 | > 30 | 0.639 | 0.758 | 0.644 | 1.53 | 0.806 | 15.3 |
| JIMT-1 (breast, adherent) | 0.914 | > 10 | 0.984 | > 20 | 0.981 | > 30 | 0.852 | 4.43 | 0.846 | 8.16 | 0.853 | 28 |
| Hs939-T (melanoma, adherent) | 0.791 | 4.98 | 0.983 | > 20 | 0.985 | > 30 | 0.765 | 2.05 | 0.708 | 2.57 | 0.873 | > 32 |
| SBC-3 (small cell lung carcinoma, adherent) | 0.657 | 1.63 | 0.673 | 3.61 | 0.988 | > 30 | 0.367 | 0.142 | 0.928 | > 10 | 0.785 | 12.4 |
| NCI-H1563 (lung adenocarcinoma, adherent) | 0.816 | 6.89 | 0.981 | > 20 | 0.983 | > 30 | 0.77 | 2.31 | 0.891 | > 10 | 0.985 | > 32 |
| H2869 (mesothelioma, adherent) | 0.886 | > 10 | 0.93 | > 20 | 0.982 | > 30 | 0.6 | 0.642 | 0.946 | > 10 | 0.918 | > 32 |
| NCI-H2122 (lung adenocarcinoma, adherent) | 0.781 | 3.88 | 0.986 | > 20 | 0.987 | > 30 | 0.891 | > 5.12 | 0.828 | 5.63 | 0.818 | 16.6 |
| A427 (non-small cell lung carcinoma, adherent) | 0.704 | 2.37 | 0.966 | > 20 | 0.974 | > 30 | 0.712 | 1.28 | 0.756 | 3.46 | 0.92 | > 32 |
| HCC202 (breast, adherent) | 0.834 | > 10 | 0.907 | > 20 | 0.975 | > 30 | 0.842 | > 5.12 | 0.948 | > 10 | 0.924 | > 32 |
| U-2-OS (osteosarcoma, adherent) | 0.766 | 4.02 | 0.982 | > 20 | 0.982 | > 30 | 0.983 | > 5.12 | 0.761 | 3.84 | 0.982 | > 32 |

| Cell Line | AUC (ZG-10) | IC50 (ZG-10) [µM] | AUC (Tubastatin A) | IC50 (Tubastatin A) [µM] | AUC (Temozolomide) | IC50 (Temozolomide) [µM] | AUC (XL-880) | IC50 (XL-880) [µM] | AUC (CI-1040) | IC50 (CI-1040) [µM] | AUC (IPA-3) | IC50 (IPA-3) [µM] |
| --- | --- | --- | --- | --- | --- | --- | --- | --- | --- | --- | --- | --- |
| NUGC-4 (stomach, adherent) | 0.815 | 5.51 | 0.947 | > 20 | 0.986 | > 30 | 0.533 | 0.394 | 0.824 | 5.97 | 0.922 | > 32 |
| SK-MEL-3 (melanoma, adherent) | 0.738 | 3.39 | 0.909 | > 20 | 0.983 | > 30 | 0.664 | 0.988 | 0.699 | 2.5 | 0.885 | > 32 |
| SF295 (glioma, adherent) | 0.868 | > 10 | 0.958 | > 20 | 0.969 | > 30 | 0.552 | 0.45 | 0.88 | > 10 | 0.888 | > 32 |
| ABC-1 (lung adenocarcinoma, adherent) | 0.689 | 2.38 | 0.966 | > 20 | 0.974 | > 30 | 0.67 | 1.06 | 0.863 | > 10 | 0.955 | > 32 |
| HGC-27 (stomach, adherent) | 0.565 | 0.913 | 0.98 | > 20 | 0.98 | > 30 | 0.498 | 0.316 | 0.963 | > 10 | 0.656 | 5.04 |
| DMS-53 (small cell lung carcinoma, adherent) | 0.971 | > 10 | 0.981 | > 20 | 0.983 | > 30 | 0.955 | > 5.12 | 0.981 | > 10 | 0.987 | > 32 |
| 8305C (thyroid, adherent) | 0.855 | > 10 | 0.982 | > 20 | 0.977 | > 30 | 0.879 | > 5.12 | 0.734 | 3.63 | 0.687 | 7.94 |
| H2722 (mesothelioma, adherent) | 0.672 | 2.08 | 0.958 | > 20 | 0.981 | > 30 | 0.703 | 1.34 | 0.939 | > 10 | 0.92 | > 32 |
| SK-N-AS (neuroblastoma, adherent) | 0.723 | 3 | 0.85 | 19 | 0.982 | > 30 | 0.672 | 1.05 | 0.638 | 1.6 | 0.913 | > 32 |
| SW1783 (glioma, adherent) | 0.845 | 6.18 | 0.991 | > 20 | 0.989 | > 30 | 0.65 | 0.795 | 0.963 | > 10 | 0.86 | 22.6 |
| SJRH30 (rhabdomyosarcoma, adherent) | 0.614 | 1.3 | 0.982 | > 20 | 0.981 | > 30 | 0.838 | 3.63 | 0.985 | > 10 | 0.815 | 18.3 |
| WM1552C (melanoma, adherent) | 0.898 | > 10 | 0.974 | > 20 | 0.986 | > 30 | 0.85 | 3.91 | 0.892 | > 10 | 0.78 | 13.3 |
| RCM-1 (large intestine, adherent) | 0.886 | > 10 | 0.985 | > 20 | 0.983 | > 30 | 0.863 | > 5.12 | 0.601 | 1.26 | 0.984 | > 32 |
| KMH-2 (thyroid, adherent) | 0.806 | 4.42 | 0.99 | > 20 | 0.959 | > 30 | 0.97 | > 5.12 | 0.498 | 0.618 | 0.81 | 14.6 |
| TOV-112D (ovary, adherent) | 0.71 | 2.46 | 0.978 | > 20 | 0.934 | > 30 | 0.58 | 0.529 | 0.896 | > 10 | 0.81 | 17 |
| SW1573 (lung adenocarcinoma, adherent) | 0.715 | 3.18 | 0.98 | > 20 | 0.975 | > 30 | 0.838 | > 5.12 | 0.873 | > 10 | 0.98 | > 32 |
| CP50-MEL-B (melanoma, adherent) | 0.796 | 4.61 | 0.963 | > 20 | 0.987 | > 30 | 0.658 | 0.876 | 0.348 | 0.238 | 0.922 | > 32 |
| LOU-NH91 (lung squamous cell carcinoma, adherent) | 0.679 | 2.07 | 0.981 | > 20 | 0.985 | > 30 | 0.726 | 1.5 | 0.93 | > 10 | 0.986 | > 32 |
| NCI-H810 (large cell lung carcinoma, adherent) | 0.66 | 1.71 | 0.686 | 4.04 | 0.923 | > 30 | 0.504 | 0.329 | 0.972 | > 10 | 0.868 | 27.1 |
| 8505C (thyroid, adherent) | 0.748 | 3.39 | 0.954 | > 20 | 0.982 | > 30 | 0.671 | 0.987 | 0.693 | 2.25 | 0.739 | 10.1 |
| SW1271 (small cell lung carcinoma, adherent) | 0.838 | 8.28 | 0.978 | > 20 | 0.982 | > 30 | 0.603 | 0.641 | 0.71 | 2.7 | 0.738 | 10.8 |
| DoTc2-4510 (cervix, adherent) | 0.71 | 2.36 | 0.983 | > 20 | 0.986 | > 30 | 0.753 | 1.63 | 0.935 | > 10 | 0.726 | 8.42 |
